115 sequences from the BET-seq Pho4 binding data (Le et al. 2018) can be followed below.

This is one part of the list. The energies were worked out here from pooled read counts, against the library average; single values are noisy.

In the test the target is T1, Pho4 (S. cerevisiae) (UniProt P07270).
T1 sequence: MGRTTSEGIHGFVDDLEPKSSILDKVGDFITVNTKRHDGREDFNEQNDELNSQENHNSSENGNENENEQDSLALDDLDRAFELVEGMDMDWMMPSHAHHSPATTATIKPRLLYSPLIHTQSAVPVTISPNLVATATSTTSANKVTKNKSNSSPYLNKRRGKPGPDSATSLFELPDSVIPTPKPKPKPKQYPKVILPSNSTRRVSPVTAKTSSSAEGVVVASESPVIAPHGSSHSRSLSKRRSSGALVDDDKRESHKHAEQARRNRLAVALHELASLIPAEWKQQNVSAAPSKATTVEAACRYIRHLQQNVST
As to the kind of experiment: relative binding free energy (BET-seq); higher = weaker binding. The conditions noted are these: reference: library average.
Turning to TTTGCCACGTGATCGT, the “relative binding free energy” value came to 0.09 kcal/mol.

Turning to CATTTCACGTGGTTGG, the “relative binding free energy” value came to 0.11 kcal/mol.

Take AGTTACACGTGGTATG: the “relative binding free energy” value was -0.05 kcal/mol.

On to TGCTTCACGTGAGGGG, for which the “relative binding free energy” value came to 0.29 kcal/mol.

Consider TAATGCACGTGTTTGC, for which the “relative binding free energy” value was -0.05 kcal/mol.

In the case of ATTGTCACGTGAAGAG, the “relative binding free energy” value was 0.25 kcal/mol.

For AAGCTCACGTGGGGTG, the “relative binding free energy” value is -0.04 kcal/mol.

Consider TTTCTCACGTGTATGA, for which the “relative binding free energy” value worked out at 0.39 kcal/mol.

On to TAAGCCACGTGATTGT, for which the “relative binding free energy” value was 0 kcal/mol.

In the case of AGTCGCACGTGGTGGG, the “relative binding free energy” value was -0.11 kcal/mol.

As for GGTTTCACGTGGCGGT, the “relative binding free energy” value turned out to be 0.34 kcal/mol.

With GTGGTCACGTGATTTC, the “relative binding free energy” value worked out at 0.24 kcal/mol.

For TGTCGCACGTGTTGAT, the “relative binding free energy” value is -0.09 kcal/mol.

Turning to GTTTTCACGTGTGACT, the “relative binding free energy” value was 0.24 kcal/mol.

AGCCTCACGTGTGTGG: the “relative binding free energy” value is 0.09 kcal/mol.

With AATGGCACGTGGGTGC, the “relative binding free energy” value was -0.15 kcal/mol.

As to AGTTTCACGTGCAAGG, the “relative binding free energy” value was 0.28 kcal/mol.

On to AATTTCACGTGTTGTA, for which the “relative binding free energy” value amounted to 0.13 kcal/mol.

Turning to GGTGACACGTGAAGTT, the “relative binding free energy” value turned out to be 0.47 kcal/mol.

For the sequence TAGTGCACGTGCTGTG, the “relative binding free energy” value is -0.11 kcal/mol.

For ATGGGCACGTGTATTT, the “relative binding free energy” value is -0.07 kcal/mol.

Consider TTAAGCACGTGCGTGA, for which the “relative binding free energy” value was -0.23 kcal/mol.

Consider AGGAGCACGTGGATAT, for which the “relative binding free energy” value was -0.1 kcal/mol.

AGGGACACGTGTTGGC: the “relative binding free energy” value was 0 kcal/mol.

As for TGGGTCACGTGCGGGC, the “relative binding free energy” value is -0.03 kcal/mol.

On to GGCGGCACGTGGGGTC, for which the “relative binding free energy” value is -0.09 kcal/mol.

ATTCGCACGTGAGTTG: the “relative binding free energy” value is 0.17 kcal/mol.

As to AGTCTCACGTGCATGG, the “relative binding free energy” value was found to be 0.18 kcal/mol.

On to TGGGTCACGTGTTCAT, for which the “relative binding free energy” value was determined as 0.16 kcal/mol.

On to TGTGACACGTGGTTGA, for which the “relative binding free energy” value was -0.13 kcal/mol.

In the case of ACATTCACGTGAGGGG, the “relative binding free energy” value was found to be 0.39 kcal/mol.

As for GTCGCCACGTGAGGTG, the “relative binding free energy” value was found to be 0.23 kcal/mol.

For TGTAACACGTGATATT, the “relative binding free energy” value is 0.12 kcal/mol.

As to CGTATCACGTGGGTTA, the “relative binding free energy” value was -0.14 kcal/mol.

Take ATTGACACGTGCGGGG: the “relative binding free energy” value is -0.03 kcal/mol.

With TTGTGCACGTGGCGTC, the “relative binding free energy” value was -0.11 kcal/mol.

Regarding GTAAACACGTGTTGAG, the “relative binding free energy” value is -0.08 kcal/mol.

For TCCTTCACGTGATTTG, the “relative binding free energy” value came to 0.43 kcal/mol.

As for TCAGACACGTGGAGGG, the “relative binding free energy” value is -0.11 kcal/mol.

As for TTATTCACGTGGGGAA, the “relative binding free energy” value is 0.15 kcal/mol.

In the case of TACGTCACGTGTGTCG, the “relative binding free energy” value was 0.19 kcal/mol.

On to TATGCCACGTGTGTGG, for which the “relative binding free energy” value was -0.13 kcal/mol.

For the sequence GGATGCACGTGATATA, the “relative binding free energy” value came out at 0.34 kcal/mol.

For the sequence GTGAGCACGTGGGATC, the “relative binding free energy” value stood at 0 kcal/mol.

With GGAGTCACGTGGGGCT, the “relative binding free energy” value was -0.01 kcal/mol.

As to CGATACACGTGGTGGG, the “relative binding free energy” value was -0.03 kcal/mol.

Regarding GCTAACACGTGTGGTG, the “relative binding free energy” value is 0.05 kcal/mol.

Take CGTTACACGTGATATT: the “relative binding free energy” value worked out at 0.15 kcal/mol.

In the case of GTGGACACGTGAAGAT, the “relative binding free energy” value amounted to 0.29 kcal/mol.

Regarding AGTTTCACGTGTACGA, the “relative binding free energy” value was 0.24 kcal/mol.

As to AGAAGCACGTGTGTAT, the “relative binding free energy” value worked out at 0.06 kcal/mol.

Regarding AGGGTCACGTGTTAGA, the “relative binding free energy” value was found to be 0.15 kcal/mol.

In the case of GGCGTCACGTGTCAGG, the “relative binding free energy” value came out at 0.2 kcal/mol.

In the case of ATTCACACGTGTGTAG, the “relative binding free energy” value is 0.12 kcal/mol.

TGCCGCACGTGGGTAG: the “relative binding free energy” value was -0.25 kcal/mol.

With GAGGCCACGTGTGGAT, the “relative binding free energy” value worked out at 0.05 kcal/mol.

Regarding GGCCACACGTGGGTGT, the “relative binding free energy” value is -0.21 kcal/mol.

Take TATAGCACGTGGTTAA: the “relative binding free energy” value was -0.13 kcal/mol.

Regarding AGGGGCACGTGCGTGG, the “relative binding free energy” value is -0.18 kcal/mol.

Consider CAGGACACGTGGGTAG, for which the “relative binding free energy” value is -0.16 kcal/mol.

For the sequence TGTATCACGTGAGAGG, the “relative binding free energy” value turned out to be 0.34 kcal/mol.

For the sequence GTTTACACGTGGCTTA, the “relative binding free energy” value turned out to be 0.12 kcal/mol.

CCTGTCACGTGGGGGG: the “relative binding free energy” value came out at 0.01 kcal/mol.

GTATGCACGTGAGTCA: the “relative binding free energy” value was 0.19 kcal/mol.

In the case of TTGGGCACGTGGAACG, the “relative binding free energy” value is -0.11 kcal/mol.

As to GGACACACGTGTGTAT, the “relative binding free energy” value stood at 0.09 kcal/mol.

For AAGGGCACGTGTGAGG, the “relative binding free energy” value is -0.03 kcal/mol.

TTCAGCACGTGTTATA: the “relative binding free energy” value was 0.06 kcal/mol.

For the sequence ATGGTCACGTGAGGGA, the “relative binding free energy” value amounted to 0.31 kcal/mol.

For the sequence TTTGTCACGTGTGACG, the “relative binding free energy” value is 0.11 kcal/mol.

Consider AGACTCACGTGATGGG, for which the “relative binding free energy” value is 0.35 kcal/mol.

GTCCACACGTGAGGGG: the “relative binding free energy” value stood at 0.24 kcal/mol.

With TACGTCACGTGGGGGA, the “relative binding free energy” value is -0.14 kcal/mol.

Regarding GGTTCCACGTGTAAAG, the “relative binding free energy” value turned out to be 0.28 kcal/mol.

In the case of TGCGTCACGTGTATGG, the “relative binding free energy” value was determined as 0.1 kcal/mol.

On to TAGGGCACGTGCGGGA, for which the “relative binding free energy” value is -0.21 kcal/mol.

TAGAGCACGTGTGGGG: the “relative binding free energy” value was -0.1 kcal/mol.

As for TATAGCACGTGGCTAT, the “relative binding free energy” value is -0.11 kcal/mol.

Consider TGGGACACGTGACGGA, for which the “relative binding free energy” value came to 0.18 kcal/mol.

On to GACTGCACGTGTGTGA, for which the “relative binding free energy” value turned out to be 0.08 kcal/mol.

For ACGATCACGTGGGGGT, the “relative binding free energy” value came to 0 kcal/mol.

On to TGATACACGTGTATGC, for which the “relative binding free energy” value amounted to 0.15 kcal/mol.

As for CGTGTCACGTGGGGTA, the “relative binding free energy” value was -0.11 kcal/mol.

As to CCTGGCACGTGGTAGG, the “relative binding free energy” value was -0.16 kcal/mol.

Consider TAATGCACGTGTGATT, for which the “relative binding free energy” value was determined as 0.03 kcal/mol.

Regarding GGTAACACGTGTGGGA, the “relative binding free energy” value was determined as 0.1 kcal/mol.

Take TTTGACACGTGTGGAA: the “relative binding free energy” value worked out at 0.18 kcal/mol.

For the sequence GCGTTCACGTGGATGT, the “relative binding free energy” value stood at 0.28 kcal/mol.

As to ATGCGCACGTGTAGGA, the “relative binding free energy” value was 0.02 kcal/mol.

Take TGAGGCACGTGAGAGG: the “relative binding free energy” value was found to be 0.15 kcal/mol.

On to ATTTTCACGTGAGCGT, for which the “relative binding free energy” value is 0.31 kcal/mol.

In the case of GGGCACACGTGAGGAT, the “relative binding free energy” value came out at 0.23 kcal/mol.

With GGGCGCACGTGGTTAG, the “relative binding free energy” value is -0.07 kcal/mol.

As to TTGTACACGTGAGTTT, the “relative binding free energy” value came to 0.3 kcal/mol.

In the case of TAGTGCACGTGAATGG, the “relative binding free energy” value was 0.29 kcal/mol.

GGGCTCACGTGGGCGT: the “relative binding free energy” value was -0.14 kcal/mol.

Consider GTTGTCACGTGGCAAG, for which the “relative binding free energy” value was determined as 0.12 kcal/mol.

For GTTTACACGTGTGCTA, the “relative binding free energy” value was -0.01 kcal/mol.

In the case of CGGTACACGTGTCTGG, the “relative binding free energy” value was 0.13 kcal/mol.

As to AGTGTCACGTGAGGTG, the “relative binding free energy” value amounted to 0.29 kcal/mol.

Take TGTGACACGTGAAGTA: the “relative binding free energy” value worked out at 0.2 kcal/mol.

In the case of TTATACACGTGAGTGA, the “relative binding free energy” value is 0.27 kcal/mol.

As to GGGAACACGTGTGTTA, the “relative binding free energy” value was -0.05 kcal/mol.

For GTGATCACGTGAGTTT, the “relative binding free energy” value was 0.4 kcal/mol.

For AGATCCACGTGGTTTT, the “relative binding free energy” value was determined as 0.11 kcal/mol.

Consider TATGTCACGTGGTTGC, for which the “relative binding free energy” value came to 0.04 kcal/mol.

For the sequence TAGTTCACGTGCTGTG, the “relative binding free energy” value was determined as 0.12 kcal/mol.

TGTGTCACGTGGAAAA: the “relative binding free energy” value is 0.2 kcal/mol.

On to TGGCACACGTGTGGTG, for which the “relative binding free energy” value is 0.15 kcal/mol.

As to GCAGTCACGTGTGGTG, the “relative binding free energy” value was found to be 0.05 kcal/mol.

Turning to TTGAGCACGTGAAGGT, the “relative binding free energy” value stood at 0.17 kcal/mol.

On to TATTTCACGTGGGCTA, for which the “relative binding free energy” value is -0.05 kcal/mol.

AAACGCACGTGGGTTT: the “relative binding free energy” value was -0.1 kcal/mol.

Consider GAGTACACGTGGCTGT, for which the “relative binding free energy” value was found to be 0.14 kcal/mol.

With GGTTACACGTGTCAAT, the “relative binding free energy” value was 0.28 kcal/mol.
